# In all, about 360,000 compounds went through this assay and about 25,000 (6.9%) were called active. This list was built around the results that the source calls inconclusive (neither active nor inactive); the mix of calls is not that of the screen. Calls follow the shape of the dose curve; as a rule, active = well fitted inhibition curve with a large enough effect; inconclusive = small, poorly fitted or top-dose-only effect; inactive = flat fitted curve, though single readings scatter. Potencies beside an inconclusive call are fits to weak or partial responses and may not hold up.
# Molecular target: Luciferin 4-monooxygenase (Photinus pyralis) (UniProt P08659)
# Chain of UniProt P08659 (P08659 whole entry, looked up): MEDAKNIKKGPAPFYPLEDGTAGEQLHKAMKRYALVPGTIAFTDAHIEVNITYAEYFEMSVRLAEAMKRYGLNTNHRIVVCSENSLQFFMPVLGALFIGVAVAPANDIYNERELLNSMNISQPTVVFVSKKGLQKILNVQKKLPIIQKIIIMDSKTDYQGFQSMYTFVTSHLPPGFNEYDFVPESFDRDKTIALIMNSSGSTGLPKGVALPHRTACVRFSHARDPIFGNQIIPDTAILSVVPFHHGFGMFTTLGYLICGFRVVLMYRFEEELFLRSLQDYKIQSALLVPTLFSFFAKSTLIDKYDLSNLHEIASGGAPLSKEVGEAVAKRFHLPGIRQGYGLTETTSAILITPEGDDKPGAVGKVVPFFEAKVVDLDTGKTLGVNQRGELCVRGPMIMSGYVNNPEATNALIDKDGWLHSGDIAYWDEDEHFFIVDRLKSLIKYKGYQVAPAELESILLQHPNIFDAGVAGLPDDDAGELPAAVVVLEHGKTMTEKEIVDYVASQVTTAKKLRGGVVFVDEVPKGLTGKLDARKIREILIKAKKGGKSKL
# Experiment: qHTS profiling assay for firefly luciferase inhibitor/activator using purifed enzyme and Km concentrations of substrates (counterscreen for miR-21 project); also: nearly all actives have a fitted effect of over 55% in size
# Settings: purified FLuc, luminescence inhibition; series mostly up to 57.5 µM
# How it was run: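 Purified P. pyralis luciferase, 10 nM final, with Km-level 10 uM D-luciferin and 10 uM ATP in 50 mM Tris acetate pH 7.5, 10 mM Mg acetate, 0.01% Tween-20, 0.05% BSA; 6-point qHTS titration about 60 µM downward; luminescence read.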
# Potency is read from the fitted curve at half-maximal effect; tags tell the direction and shape of the fitted curve.
row,SMILES,Potency
1,COc1ccc(-c2cccc(NS(=O)(=O)c3cc(C)c(OC)c(C)c3C)c2)nn1,"inconclusive: 10.7 µM [inhibitor, partial curve]"
2,COC(=O)c1ccc(C(=O)NC(=S)Nc2nc3c(s2)CCCC3)cc1,active: 15.1 µM
3,CC(=O)N1CCN(c2ccc(NC(=O)c3cc4ccccc4o3)cc2)CC1,"inconclusive: 30.1 µM [inhibitor, partial curve, poor fit]"
4,Cc1ccc(NC(=O)C2CCCN2S(=O)(=O)c2ccc3c(c2)CCCC(=O)N3)cc1C (stereo not drawn),inactive
5,Cc1ccc(-n2c(C)cc(C(=O)OCC(=O)N(C)C3CCS(=O)(=O)C3)c2C)cc1 (stereo not drawn),"inconclusive: 19 µM [inhibitor, partial curve, poor fit]"
6,NNC(=O)CSCc1nc(-c2ccc(Cl)cc2)cs1,"inconclusive: 23.9 µM [inhibitor, partial curve]"
7,CCCN(CCC)C(=O)c1cc(S(=O)(=O)N2CCCCC2)c[nH]1,inactive
8,CCOCC(=O)Nc1nc2ccc(S(C)(=O)=O)cc2s1,"inconclusive: 37.9 µM [inhibitor, partial curve, poor fit]"
9,O=C(NCc1ccccc1Cl)c1ccc2c(=O)n(CC3CCCO3)c(=S)[nH]c2c1 (stereo not drawn),"inconclusive: 26.9 µM [inhibitor, partial curve]"
10,O=C(O)c1ccc(-n2c(-c3cc(-c4ccco4)[nH]n3)n[nH]c2=S)cc1,"inconclusive: 21.3 µM [inhibitor, partial curve, poor fit]"
11,Cc1cccc(NC(=O)Nc2ccc3c(c2)N(C)C(=O)CS3)n1,"inconclusive: 13.5 µM [inhibitor, partial curve]"
12,COc1ccc2nc(-c3ccc(N)cc3)[nH]c2c1,active: 3.79 µM
13,COc1ccccc1C(=O)OCc1cc(=O)n2nc(C3CC3)sc2n1,inactive
14,Oc1ccc(Br)cc1/C=N/n1c(COc2ccccc2)n[nH]c1=S,inactive
15,O=C(/C=C/c1ccccc1Cl)c1ccccc(=O)c1O,"inconclusive: 16.9 µM [inhibitor, partial curve, poor fit]"
16,Cc1cccc(NC(=S)N=Nc2c(O)n(CN3CCOCC3)c3ccccc23)c1C,inactive
17,CCOC(=O)/C(C#N)=C/c1cn(CCC(=O)O)nc1-c1cccc(Cl)c1,"inconclusive: 37.9 µM [inhibitor, single point]"
18,CC(=O)c1cccc(NC(=O)Nc2ccccc2)c1,active: 12 µM
19,O=C(Nc1nnc(Cc2ccccc2)s1)c1cccnc1,"inconclusive: 26.9 µM [inhibitor, single point]"
20,Cn1cc(Br)c(-c2cccc(NC(=O)CCC(=O)O)c2)n1,inactive
21,O=C1c2ccccc2C(=O)C1c1ccc(O)cc1,"inconclusive: 3.01 µM [inhibitor, full curve]"
22,N#C/C(=C\c1ccc(OCc2ccccc2)cc1)C(N)=O,"inconclusive: 21.3 µM [inhibitor, partial curve]"
23,COc1cc(OC)c(C2Nc3ccccc3-c3nnc(SCc4ccccc4)nc3O2)cc1OC (stereo not drawn),"inconclusive: 37.9 µM [inhibitor, single point]"
24,CSc1ccc(/C=C/C(=O)N2CCN(c3ccccn3)CC2)cc1,active: 13.5 µM

row,SMILES,Potency
1,Cc1ccc(C(=O)Nc2nnc(C)s2)cc1,active: 12 µM
2,O=C(CCc1ccccc1)Nc1cc2c3c(c1)CC(=O)N3CCC2,inactive
3,Cn1c2ccccc2c(=O)n2c(=O)c3ccccc3cc12,"inconclusive: 30.1 µM [inhibitor, partial curve, poor fit]"
4,O=C(Nc1ccccc1F)c1ccc(Br)o1,"inconclusive: 23.9 µM [inhibitor, single point]"
5,COc1ccc(NC(=S)Nc2cnc3ccccc3c2)c(OC)c1,active: 6.01 µM
6,COc1ccc(-c2nc(CN3CCC(C(=O)NCCCOC(C)C)CC3)c(C)o2)cc1OC,inactive
7,COC(=O)c1cc(-c2c(C)nn(-c3ccccc3)c2C)n[nH]1,"inconclusive: 19 µM [inhibitor, partial curve, poor fit]"
8,Cc1csc(N/N=C/c2ccccn2)n1,active: 2.13 µM
9,Cc1oc(S(=O)(=O)N2CCOCC2)cc1C(=O)Nc1ccc(F)cc1,inactive
10,O=C(Oc1ccc(-c2cnc3ccccc3n2)cc1)c1cc([N+](=O)[O-])ccc1Cl,"inconclusive: 6.75 µM [inhibitor, partial curve]"
11,O=C1/C(=C/c2cccs2)NC(=S)N1C1CC1,"inconclusive: 12 µM [inhibitor, partial curve, poor fit]"
12,CC(Cc1cccs1)NC(=O)c1cccs1 (stereo not drawn),"inconclusive: 37.9 µM [inhibitor, partial curve, poor fit]"
13,Cc1ccc(C(=O)NNC(=O)c2nn(-c3ccc(F)cc3)ccc2=O)cc1,active: 15.1 µM
14,COc1ccc(OCC(=O)Nc2cc(NC(=O)COc3ccc(OC)cc3)cc(C(=O)O)c2)cc1,"inconclusive: 33.8 µM [inhibitor, partial curve, poor fit]"
15,Cc1cccn2c(/C=N/OCc3cccc(F)c3)c(-c3ccc(Cl)cc3)nc12,inactive
16,O=C(COC(=O)c1ccccn1)c1ccc(Br)cc1,active: 2.39 µM
17,NS(=O)(=O)c1ccc(NC(=S)NCc2ccc(Cl)cc2)cc1,"inconclusive: 37.9 µM [inhibitor, partial curve, poor fit]"
18,Cc1cccc(NC(=O)C2C3C=CC(C4CC34)C2C(=O)O)c1 (stereo not drawn),active: 16.9 µM
19,Cn1c(=O)n(C)c2cc(N3CCCCC3)c(NC(=O)c3ccc(Cl)cc3)cc21,inactive
20,O=C1c2ccccc2-c2nc3ccccc3cc21,active: 2.13 µM
21,O=C(CCSc1ccc(Cl)cc1)N1CCN(c2ncccn2)CC1,active: 19 µM
22,CCOc1cccc(OCCCOc2cccc3cccnc23)c1,"inconclusive: 26.9 µM [inhibitor, single point]"
23,CN1CCC(C2(O)c3ccccc3CCc3ccccc32)CC1,"inconclusive: 26.9 µM [inhibitor, single point]"
24,COc1ccc(S(=O)(=O)Oc2ccc3ccccc3c2)cc1,"inconclusive: 26.9 µM [inhibitor, partial curve]"

# — PubChem BioAssay AID588342 (National Center for Advancing Translational Sciences (NCATS), 2011)
